From PubChem BioAssay AID1963833 (Molecular Pharmacology Branch, DTP, NCI, 2024)
Some entries of the source have several records that differ or are many. The other results are left out here. There may be further records. Values that stand side by side are repeated measurements in other runs, samples, wells, individuals or studies. Marks such as (2×) say how often a value occurs here.

Test system: 883617-216-R-J1-PDC complex spheroid viability
Assay: Anticancer human tumor 883617-216-R-J1-PDC patient-derived bladder carcinoma cell line growth inhibition [POLQ]
Conditions: stronger effect = lower value
Method: Multicellular complex tumor spheroid response to Polymerase (POL) inhibitors (novobiocin, ART-558, RP6685) in combination with a variety of drugs and investigational agents in selected tumor cell lines
The POL inhibitors (novobiocin, ART-558, and RP6685) were evaluated both individually and in combination with standard of care and investigational anticancer small molecules within a complex spheroid model of solid tumors. . Complex spheroids include a stromal component modeled by human endothelial cells (HUVEC) and fibroblasts modeled by human mesenchymal stem cells (MSCs). The concentration ranges selected for each drug and investigational agent were based upon clinically achievable concentrations if the clinical Cmax of the agent was known.
Compounds. The drugs and investigational agents: novobiocin (NSC847541), ART-558 (NSC835418), RP-6685 (NSC848927), peposertib (NSC802822), ceralasertib (NSC780249), elimusertib (NSC800525), camonsertib (NSC841442), AZD-1390 (NSC803789), olaparib (NSC753686), talazoparib (NSC767125), rucaparib (NSC756644), sotorasib (NSC818433), MRTX-1133 (NSC836407), SN-38 (NSC673596), topotecan (NSC609699), epotoside (NSC141540), doxorubicin (NSC123127), gemcitabine (NSC613327), 5-fluorouracil (NSC19893), paclitaxel (NSC125973), vemurafenib (NSC761431), MSA-2 (NSC828583), SN-011 (NSC837082), adavosertib (NSC754352), prexasertib (NSC758257), carboplatin (NSC241240) and oxaliplatin (NSC266046), were obtained from the National Cancer Institute (NCI) Developmental Therapeutics Program Chemical Repository (21). The FDA-approved anticancer drug set is available from the Developmental Therapeutics Program at https://dtp.cancer.gov/organization/dscb/obtaining/. […] If the clinical Cmax for an agent had not been determined, the highest concentration tested was 10 microM, except for SN-38, which was tested at a high concentration of 1 microM. […]
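Also: spheroids exposed to compounds for seven days before readout; 100% = DMSO vehicle control viability.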

| SMILES | viability, T/C (compound alone 0.1 µM) | viability, T/C (compound alone 0.316 µM) | viability, T/C (compound alone 10 µM) |
| --- | --- | --- | --- |
| Cc1cccc(N(C)C(=O)C2C(O)CCN2c2nc(C)cc(C(F)(F)F)c2C#N)c1 (stereo not drawn) | 110 (2×), 106, 95.5, 114, 98.8, 97.9, 104 (2×), 98.7, 93.9, 87.6, 87.5% | – | – |
| COC1C(OC(N)=O)C(O)C(Oc2ccc3c(O)c(NC(=O)c4ccc(O)c(CC=C(C)C)c4)c(=O)oc3c2C)OC1(C)C (stereo not drawn) | – | 93.5, 98.6, 112, 96.9, 99.5, 114, 102, 100 (2×), 91.6, 97.6, 121, 99.3% | 91.1, 105, 92.4, 116, 94, 89.3, 101, 86.8, 97.2, 94.5, 113, 106, 96.9% |
